# From PMC6919601, “Identification of Plasmodium dipeptidyl aminopeptidase allosteric inhibitors by high throughput screening” (PLoS ONE, 2019)
# The campaign covered roughly 110,000 compounds. About 230 (0.21%) showed an effect of 50% or more. This is one part of the list.
# Target: DPAP1 (Plasmodium falciparum, UniProt Q8IIJ9)
# Assay: primary screen, percent inhibition; read by cleavage of a fluorogenic dipeptide substrate; higher = more effect of the substance
# Set-up: species or system P. falciparum D10 trophozoite lysates; single well
# 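Also: 30 min substrate incubation versus DMSO and 10 µM JCP410 controls.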
# Chain of DPAP1 (Q8IIJ9 whole entry, looked up): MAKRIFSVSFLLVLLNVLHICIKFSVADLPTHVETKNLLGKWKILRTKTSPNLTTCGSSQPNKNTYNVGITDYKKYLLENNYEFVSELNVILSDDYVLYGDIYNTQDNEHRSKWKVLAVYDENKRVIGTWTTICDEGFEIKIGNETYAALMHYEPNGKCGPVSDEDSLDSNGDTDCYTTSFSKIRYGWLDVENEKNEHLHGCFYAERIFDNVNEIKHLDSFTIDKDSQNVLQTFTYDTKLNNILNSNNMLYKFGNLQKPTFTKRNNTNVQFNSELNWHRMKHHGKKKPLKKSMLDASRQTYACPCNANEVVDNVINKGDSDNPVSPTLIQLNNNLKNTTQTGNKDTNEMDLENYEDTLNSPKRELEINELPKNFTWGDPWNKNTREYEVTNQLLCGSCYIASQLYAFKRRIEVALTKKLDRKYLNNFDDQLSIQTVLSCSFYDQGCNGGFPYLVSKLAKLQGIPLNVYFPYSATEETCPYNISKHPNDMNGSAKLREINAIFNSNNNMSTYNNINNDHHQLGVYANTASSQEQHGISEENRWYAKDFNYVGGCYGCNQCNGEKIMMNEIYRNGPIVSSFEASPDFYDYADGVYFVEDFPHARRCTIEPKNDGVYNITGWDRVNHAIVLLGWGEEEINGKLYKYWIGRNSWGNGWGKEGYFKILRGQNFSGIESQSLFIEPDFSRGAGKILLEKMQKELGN
row,Structure (SMILES),% Inhibition @ 10 uM [%]
1,Cc1ccc2c(c1)-c1onc(C(=O)NC3CCCc4ccccc43)c1CO2 (stereo not drawn),-2.87
2,COc1ccc(C2CC(=O)c3cnc(NCCCOC(C)C)nc3C2)cc1 (stereo not drawn),2.24
3,Cn1c(=O)c2c(nc(NCc3ccc4c(c3)OCO4)n2C)n(C)c1=O,0.0289
4,CCCC(=O)c1ccc(N2CCN(C)CC2)c(F)c1,2.93
5,CC(C)CS(=O)(=O)C1=NSC2=NC(=O)/C(=C\c3ccc(OS(C)(=O)=O)cc3)C(=N)N21,1.85
6,O=C(O)Cn1nc2c3c(cccc31)C(=O)c1ccccc1-2,5.88
7,Cc1cc(O)nc(SCC(C)C)n1,4.21
8,O=C(COc1cccc(Cl)c1)Nc1cc(Cl)cc(Cl)c1,1.83
9,CCOCCCNC(=O)Cn1ncc2c3ccccc3n(Cc3ccccc3)c2c1=O,0.137
10,Cc1noc2ncnc(NCc3ccco3)c12,0.708
11,CCCN1CCN(C(=O)c2ccc(CS(=O)c3ccc(OC)cc3)o2)CC1 (stereo not drawn),-1.86
12,Oc1ccc(CNc2ccc(Cl)cc2)c2cccnc12,-15.4
13,CCc1cc2c(N3CCN(c4ccccn4)CC3)ncnc2s1,-2.42
14,CCN1CCN(c2ccc(NC(=O)Cc3ccccc3)cc2Cl)CC1,2.03
15,CCOc1ccc2nc3sc(C(=O)Nc4ccc(C(C)=O)cc4)c(N)c3cc2c1,-4.12
16,CN(Cc1ccccc1)C(=O)c1ccc(C(C)(C)C)cc1,8.01
17,COc1ccc(OC)c(NC(=O)c2ccc(OC(F)F)c(OC)c2)c1,2.08
18,Cc1cc(-c2ccc(S(=O)(=O)N(C)Cc3ccccc3)cc2)on1,0.453
19,COc1ccc2c(c1)N1CCN=C1N2C,-3.44
20,O=C(CCc1ccccc1)Nc1ccc(F)cc1F,3.53
21,COc1ccc(CCC(C)NC2CCCC2)cc1 (stereo not drawn),-1.81
22,Cc1ccc(N2CCN(Cc3cccc(C(F)(F)F)c3)CC2)cc1,-3.57
23,COc1ccc(-c2cc(C(F)(F)F)n3nc(C(=O)O)cc3n2)cc1OC,0.512
24,O=C(O)CN1CCc2ccccc21,-3.58
25,COc1ccc(-c2[nH]nc3c2C(c2c[nH]nc2-c2ccc(F)cc2)C(C#N)=C(N)O3)cc1 (stereo not drawn),-2.78
26,Nc1ccc(C(=O)Nc2ccc(OC(F)(F)C(F)F)c(NC(=O)c3ccc(N)cc3)c2)cc1,-5.28

row,Structure (SMILES),% Inhibition @ 10 uM [%]
1,CS(=O)(=O)N(CC(=O)NC1CCCCC1)c1cccc2ccccc12,-3.04
2,Cc1cc(C(=O)N2CCN(Cc3ccccc3)CC2)c2c(C)nn(-c3ccccc3Cl)c2n1,2.12
3,COc1ccc(CNC(=O)CNS(=O)(=O)c2ccc(Br)cc2)cc1,-2.09
4,C=CCn1c(-c2ccc(OC)cc2)nc2ccccc21,-2.28
5,CC(C)OCCCN1C(=O)c2ccccc2C1C(=O)NC1CCCCC1 (stereo not drawn),3.66
6,O=C(CN(c1ccc(F)cc1)S(=O)(=O)c1ccccc1)N1CCc2ccccc2C1,-2.99
7,COC(=O)c1cc(Cl)c(NC(=O)c2ccc(F)cc2)cc1OC,6.49
8,CCn1ncc(C2C(C#N)=C(N)OC3=C2C(=O)CC(C)(C)C3)c1C (stereo not drawn),1.03
9,COc1ccc(-c2nc(CN3CCC(C(=O)NC4CCCC4)CC3)c(C)o2)cc1OC,-4.71
10,Nc1ccccc1-c1nnc(S)nc1O,-3.66
11,C/C=C(\C)CN1CCN(c2ccccn2)CC1,-0.603
12,Clc1cccc(-n2cc(-c3ccccc3)c3c(NCCN4CCOCC4)ncnc32)c1,4.46
13,CN1CCCN(Cc2ccc(N(C)C)cc2)CC1,0.708
14,CCS(=O)(=O)C1=NN2C(=N)/C(=C\c3ccc(OS(C)(=O)=O)cc3)C(=O)N=C2S1,0.208
15,Cc1ccc(Cl)cc1N1CCN(CC(O)COc2ccccc2F)CC1 (stereo not drawn),0.964
16,COc1cccc(C2C3=C(CC(C)(C)CC3=O)N=C3C2=C(O)c2ccccc23)c1OC (stereo not drawn),-7.23
17,CCOc1ccccc1/C=C1/SC(=O)N(CC(=O)N2CCCCC2)C1=O,-3.83
18,N=C1SC(CC(=O)Nc2ccccc2Br)C(=O)N1c1ccccc1 (stereo not drawn),-3.49
19,Cc1ccc(C2C(C#N)=C(N)Oc3cc(O)ccc32)cc1 (stereo not drawn),4.08
20,CCOC(=O)C1=C(C)N2CCN=C2S1,-9.82
21,COc1ccc(C(=O)N2CCN(c3ccc(C)cc3C)CC2)cc1OC,-5.95
22,CCCCNC(=O)c1cc(C)nc2c1c(C)nn2-c1ccccc1,-4.97
23,Cc1ccc2c(cnn2C(=O)CCCC(=O)NCc2ccc(Cl)cc2)c1,-2.88
24,Cc1ccc(C(=O)CC2(O)C(=O)N(Cc3ccccc3C)c3ccccc32)cc1 (stereo not drawn),-2.8
25,CCN(CC)CCN(C)Cc1ccc(F)c(F)c1,1.88
